# Out of some 310,000 compounds screened, about 14,000 (4.5%) showed an effect of 50% or more. The effect is printed as a negative number. Some of the results follow. Where a SMILES comes first, the peptide text is derived from it. [ ]: non-standard residue; d: D form. ξ: configuration not given here. ξF = NC(Cc1ccccc1)C(=O)O
# Target: human ether-à-go-go-related gene (hERG) potassium channel (human, UniProt Q12809)
# Assay: primary screen, population patch clamp on CHO cells stably expressing hERG
# 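Further: peak tail current of the secondary pulse compared with the same well before compound.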
# human ether-à-go-go-related gene (hERG) potassium channel, sequence (Q12809 whole entry, looked up): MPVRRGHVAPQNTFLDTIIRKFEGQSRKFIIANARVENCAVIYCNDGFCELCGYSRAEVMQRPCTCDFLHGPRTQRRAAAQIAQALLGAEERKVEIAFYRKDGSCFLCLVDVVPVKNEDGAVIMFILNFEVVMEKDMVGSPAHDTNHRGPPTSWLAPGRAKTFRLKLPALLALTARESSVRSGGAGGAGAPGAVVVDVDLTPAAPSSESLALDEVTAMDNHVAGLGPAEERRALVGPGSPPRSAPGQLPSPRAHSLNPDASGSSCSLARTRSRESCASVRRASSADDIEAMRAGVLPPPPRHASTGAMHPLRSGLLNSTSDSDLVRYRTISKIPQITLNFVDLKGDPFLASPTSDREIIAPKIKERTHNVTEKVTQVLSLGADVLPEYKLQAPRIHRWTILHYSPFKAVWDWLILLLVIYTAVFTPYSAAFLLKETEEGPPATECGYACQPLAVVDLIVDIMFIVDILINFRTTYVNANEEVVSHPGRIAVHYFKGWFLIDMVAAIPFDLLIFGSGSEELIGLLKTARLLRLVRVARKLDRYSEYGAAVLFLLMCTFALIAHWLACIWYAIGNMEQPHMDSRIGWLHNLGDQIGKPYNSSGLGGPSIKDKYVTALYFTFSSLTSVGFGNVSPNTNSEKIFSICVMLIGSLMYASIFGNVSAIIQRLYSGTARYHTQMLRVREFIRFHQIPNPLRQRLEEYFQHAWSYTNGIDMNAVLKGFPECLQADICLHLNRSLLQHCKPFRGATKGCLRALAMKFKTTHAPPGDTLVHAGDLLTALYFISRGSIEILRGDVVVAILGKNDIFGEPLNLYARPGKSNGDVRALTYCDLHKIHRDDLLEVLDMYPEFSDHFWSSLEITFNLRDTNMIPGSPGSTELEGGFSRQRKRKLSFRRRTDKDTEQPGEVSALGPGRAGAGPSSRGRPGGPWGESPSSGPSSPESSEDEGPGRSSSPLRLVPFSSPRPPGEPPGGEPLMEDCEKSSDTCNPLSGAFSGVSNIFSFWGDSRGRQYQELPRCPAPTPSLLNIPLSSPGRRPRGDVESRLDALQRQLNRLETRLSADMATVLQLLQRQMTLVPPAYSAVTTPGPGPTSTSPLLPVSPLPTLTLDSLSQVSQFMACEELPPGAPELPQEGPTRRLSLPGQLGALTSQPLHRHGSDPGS
row,Compound,"hERG current change (%, negative = inhibition) at 10uM [%]"
1,CN1C(=O)C2(Oc3ccccc3C3CC(c4ccccc4)=NN32)c2ccccc21 (stereo not shown),6.76
2,COc1cc(OC)c(C2N(c3ccc(Cl)c(Cl)c3)C(=O)C3CCCN32)cc1OC (stereo not shown),3.7
3,Cc1ccc(-c2noc(CNc3ccccc3)n2)cc1,5.41
4,CC(=O)c1sc(C(C)(C)C)cc1NC(=O)CCC(=O)O,16.3
5,COc1ccccc1CNC(=O)COC(=O)c1cc([N+](=O)[O-])ccc1N1CCOCC1,-48.9
6,Cc1cc(C(F)(F)F)c2c(C)nn(CCc3nn[nH]n3)c2n1,6.68
7,CCN(CC(=O)Nc1ccc(S(=O)(=O)N2CCOCC2)cc1)Cc1ccccc1,-16.5
8,CC(C)c1cc(C(=O)O)c2cnn(C(C)C)c2n1,-8.8
9,Cc1csc(/C(=N\O)c2csc(C)n2)n1,-0.141
10,Cc1c(-n2cc(C(=O)O)c(=O)c3cc(F)c(N4CCCC(O)C4)c(F)c32)c(=O)n(-c2ccccc2)n1C (stereo not shown),0.52
11,CC(=O)NCC(=O)NC(Cc1ccccc1)C(N)=O (stereo not shown) (Ac-Gly-[ξF]-NH2),7.6
12,COc1ccc(Nc2nc(N)c([N+](=O)[O-])c(NC3CCCCC3)n2)cc1,6.75
13,O=c1oc(-c2cc3ccccc3o2)nc2sc3c(c12)CCCC3,5.88
14,CCN(CC)CCCN1C=C2C(=O)C(C)(OC(=O)CCC(=O)OC)C(=O)C=C2C=C1C1CC1 (stereo not shown),-13.4
15,Cc1ccc(Cn2nc(C)c(NC(=O)C3CC3)c2C)cc1,12.1
16,CC(=C/c1ccccc1)/C=N/NC(=O)c1ccccn1,-30.3
17,CCOc1ncccc1C(=O)N1CCN(S(=O)(=O)c2ccc3c(c2)OCCO3)CC1,2.36
18,CCN(CC)S(=O)(=O)c1cccc(NC(=O)COc2ccc(Cl)cc2Br)c1,2.59
19,CC(C)N(Cc1ccccc1)S(=O)(=O)c1ccc(F)cc1,-14.7
20,Nc1c(NCc2ccccc2)c(=O)[nH]c(=O)n1Cc1ccccc1,-17.6
21,Cc1ccc2[nH]c3c(c2c1)CN(C)CC3.Cl,-5.01
22,O=C(O)c1cc(=O)cc(C(=O)O)[nH]1,-14.7
23,CNC(=S)N1N=C(c2cccs2)CC1c1ccc(F)cc1 (stereo not shown),-12.8
24,O=C(Nc1ccccc1Br)C1CCN(C(=O)Cc2ccccc2)CC1,5.05
25,COc1ccc(C)c2sc(=NC(=O)C(C)C)n(C)c12,-0.259
26,COC(=O)C1=C(C)N(CCc2ccccc2)C(=O)/C1=C\c1ccco1,-4.19
27,COc1cc(OC)cc(-c2c(C#Cc3ccsc3)c3cc(-c4ccc5c(c4)OCCO5)ccc3n2C)c1,7.37
28,O=C(Nc1ccccc1[N+](=O)[O-])C1COc2ccccc2O1 (stereo not shown),14

row,Compound,"hERG current change (%, negative = inhibition) at 10uM [%]"
1,Cc1ccc(C(=O)Nc2ccc3c(c2)nc(CCNC(=O)c2ccco2)n3C)cc1,8.06
2,O=C(O)CC1COc2ccccc2N1C(=O)c1ccccc1Cl (stereo not shown),31.3
3,O=C(Nc1ccc2c(c1)OCCO2)C1c2ccccc2C(=O)N2CCc3ccccc3C12 (stereo not shown),-3.51
4,CCOC(=O)Cn1cc(C(=O)c2ccccc2)c2ccccc21,5.11
5,COC(=O)Cc1c(C)c2ccc(O)c(CNCc3ccc(OC)c(OC)c3)c2oc1=O.Cl,9.53
6,CN1/C(=C\C(=O)CSc2ncn[nH]2)C(C)(C)c2ccccc21,-2.38
7,COc1ccc(N2CCN(C(=O)c3ccccc3F)CC2)c([N+](=O)[O-])c1,-51.3
8,CC(=O)c1sc(NCCOc2ccc(C)cc2)nc1C,13.5
9,COc1ccc(NC(=O)C(c2ccc(C)cc2)N(C)C(=O)c2ccc(=O)[nH]c2)cc1 (stereo not shown),-0.629
10,CCn1c(Cc2ccc(OC)cc2)nnc1SCC(=O)Nc1nc2ccccc2s1,12.9
11,Cc1ccc(S(=O)(=O)N2CCC(C(=O)N[C@@H](C)C(=O)NCC3CCCO3)CC2)cc1 (stereo partly shown),-5.33
12,COc1ccc(/C=C/C(O)=C2/C(=O)NC3(C)CC2c2ccccc2O3)c(OC)c1OC (stereo not shown),21.9
13,COc1ccc(-c2cc(-c3nnc(COC(=O)CC4CCCC4)o3)c3ccccc3n2)cc1OC,10.9
14,COc1ccc(NC2=C(Cl)C(=O)N(CCc3ccccc3)C2=O)c(OC)c1,8.55
15,O=C(c1cc(S(=O)(=O)N2CCCCC2)ccc1Cl)N1CCOCC1,12.7
16,Cc1ccc2oc(=O)n(CCOc3ccccc3)c2c1,6.35
17,C=CCN1C(=O)/C(=C/c2cc(C)n(-c3ccccn3)c2C)C(=O)NC1=S,-6.57
18,COc1cc2ncnc(NCc3ccc4c(c3)OCO4)c2cc1OC,-8.43
19,CC1C(=O)N2CCCc3cc(S(=O)(=O)N4CCN(c5ccc(F)cc5)CC4)cc1c32 (stereo not shown),-50.3
20,C/C(=N\NC(=O)c1nnn(-c2nonc2N)c1-c1ccc(Cl)c(Cl)c1)c1ccncc1,16.4
21,C=CCN(C(=O)CNC(=O)c1ccco1)C(C(=O)NC1CCCCC1)c1ccccc1 (stereo not shown),1.1
22,Cc1ccc(NC(=O)c2cc(S(=O)(=O)N3CCOCC3)ccc2F)c(C)c1,-10.9
23,COc1ccc(OCC(=O)Nc2ccc3c(c2)nc(CCNC(C)=O)n3C)cc1,13.1
24,O=C(CC1CCCCC1)Nc1nc2ccccc2s1,8.92
25,N#C/C(=C\c1ccc(N2CCCCC2)o1)C(=O)Nc1cccc(Br)c1,5.3
26,CC(=O)CCc1ccc(OCC(O)CNC2CCCc3ccccc32)cc1.O=C(O)C(=O)O (stereo not shown),-49
27,CC(C)c1[nH]nc2c1C(c1cccc(OC(=O)N3CCOCC3)c1)C(C#N)=C(N)O2 (stereo not shown),-4.01
